Experimental data: article PMC4336329 (PLoS ONE, 2015)
Among all 310,000 compounds or so, about 2,200 (0.71%) showed an effect of 50% or more. Effects have a minus sign here. The list shows a part of the results.

The molecules below were run against human ether-à-go-go-related gene (hERG) potassium channel (human, UniProt Q12809) (assay: primary screen, population patch clamp on CHO cells stably expressing hERG).
human ether-à-go-go-related gene (hERG) potassium channel, sequence (Q12809 whole entry, looked up): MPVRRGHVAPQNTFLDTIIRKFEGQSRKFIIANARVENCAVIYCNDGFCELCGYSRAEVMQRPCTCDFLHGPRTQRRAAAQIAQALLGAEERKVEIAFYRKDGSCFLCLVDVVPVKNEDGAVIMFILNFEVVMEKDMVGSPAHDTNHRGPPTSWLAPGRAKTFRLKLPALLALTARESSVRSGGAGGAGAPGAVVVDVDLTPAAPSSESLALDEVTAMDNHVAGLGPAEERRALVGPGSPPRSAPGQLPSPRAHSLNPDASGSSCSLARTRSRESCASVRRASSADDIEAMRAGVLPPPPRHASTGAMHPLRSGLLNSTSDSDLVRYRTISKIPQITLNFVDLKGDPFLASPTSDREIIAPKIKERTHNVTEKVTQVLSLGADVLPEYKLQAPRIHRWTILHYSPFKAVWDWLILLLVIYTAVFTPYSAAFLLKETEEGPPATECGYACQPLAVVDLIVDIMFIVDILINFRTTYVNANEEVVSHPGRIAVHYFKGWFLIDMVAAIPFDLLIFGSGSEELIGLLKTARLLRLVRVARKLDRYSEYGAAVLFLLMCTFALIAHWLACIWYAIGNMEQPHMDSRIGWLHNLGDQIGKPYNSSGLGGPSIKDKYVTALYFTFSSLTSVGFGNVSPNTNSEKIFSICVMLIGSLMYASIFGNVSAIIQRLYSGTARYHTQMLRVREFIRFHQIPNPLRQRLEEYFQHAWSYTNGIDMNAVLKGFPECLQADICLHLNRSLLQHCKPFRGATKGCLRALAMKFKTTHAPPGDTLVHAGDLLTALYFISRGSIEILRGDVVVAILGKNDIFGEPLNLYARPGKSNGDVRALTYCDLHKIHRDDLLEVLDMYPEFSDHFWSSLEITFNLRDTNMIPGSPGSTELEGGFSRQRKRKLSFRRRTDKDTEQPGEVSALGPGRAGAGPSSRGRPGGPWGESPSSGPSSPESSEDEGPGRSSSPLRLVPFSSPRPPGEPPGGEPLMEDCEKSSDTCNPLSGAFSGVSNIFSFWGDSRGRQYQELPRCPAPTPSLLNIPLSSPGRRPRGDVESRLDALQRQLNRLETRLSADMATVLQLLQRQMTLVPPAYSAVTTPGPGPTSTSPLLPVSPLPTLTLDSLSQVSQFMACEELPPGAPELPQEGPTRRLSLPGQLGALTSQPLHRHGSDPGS

First: C=CCC1c2cccc(C(=O)O)c2C(=O)N1c1cccc(C)c1 (stereo not shown)
Second: Cc1ccc(CCNC(=O)c2cccc(N3CCCC3=O)c2)cc1
The “hERG current change (%, negative = inhibition) at 1uM” value of the first is lower: 11.5% for the first, 16.4% for the second.

Going from `COc1ccc2c(c1O)[C@]13CCN(C)[C@H](C2)[C@@H]1CCC(=O)C3` to `COc1ccc(CCN2CC(C(=O)NCC(=O)Nc3ccc(F)c(F)c3)CC2=O)cc1OC` (stereo not shown), the “hERG current change (%, negative = inhibition) at 1uM” value rises from 3.05% to 8.2%.

Compared with `CSc1ccc(-c2cccc([N+](=O)[O-])c2)nn1`, `Cc1cc([N+](=O)[O-])ccc1NC(=O)c1cc2ccccc2o1` is lower in “hERG current change (%, negative = inhibition) at 1uM” value: 8.09% for the first, 3.19% for the second.

Compared with `Cc1ccc(OCCCCn2cnc3ccccc32)c(C)c1.O=C(O)C(=O)O`, `C/C(CC(=O)Nc1ccc(C)c(Cl)c1)=N\NC(=O)Cc1ccccc1` is higher in “hERG current change (%, negative = inhibition) at 1uM” value: -5.2% for the first, 3.51% for the second.

Compared with `CCN(Cc1ccccc1)S(=O)(=O)c1ccc2c(c1)NC(=O)CS2`, `O=S(=O)(c1ccccc1)N1CCN(Cc2cccc(Cl)c2)CC1` is higher in “hERG current change (%, negative = inhibition) at 1uM” value: -7.74% for the first, 5.84% for the second.

Compared with `CCn1c(SCC(=O)N2CCCC2)nnc1-c1ccc(S(=O)(=O)N2CCCCCC2)cc1`, `Cc1nc2ccc(S(=O)(=O)NCC(=O)N3CCCCC3)cc2s1` is lower in “hERG current change (%, negative = inhibition) at 1uM” value: 3.58% for the first, 3.05% for the second.

Going from `COc1ccccc1NC(=O)/C(=C\c1cccnc1)NC(=O)c1ccccc1` to `Cc1cccc(NC(=O)NNC(=O)c2cc(-c3ccccc3Cl)nc3ccccc23)c1`, the “hERG current change (%, negative = inhibition) at 1uM” value rises from -35.7% to 1.95%.

Going from `O=C(N1CCOCC1)N1CCN(C(c2ccccc2)c2ccccc2)CC1` to `O=C(c1n[nH]c(=O)c2ccccc12)N1CCN(c2ccccc2)CC1`, the “hERG current change (%, negative = inhibition) at 1uM” value falls from 22.1% to 10.1%.

Compared with `Cc1ccc2cc3cc(C(=O)NCCCN4CC(C)CC(C)C4)oc3nc2c1` (stereo not shown), `O=C(NCCCNC(=O)c1ccc(-c2cc(Cl)ccc2Cl)o1)c1cnccn1` is higher in “hERG current change (%, negative = inhibition) at 1uM” value: -10.5% for the first, 7.84% for the second.

Going from `CC(=O)c1ccc(N2CCN(CC(=O)Nc3ccccc3N3CCOCC3)CC2)cc1` to `COCCCNC(=O)CN1C(=O)/C(=C\c2ccc(C)cc2)Sc2ccccc21`, the “hERG current change (%, negative = inhibition) at 1uM” value falls from 23% to 1.96%.

Going from `O=C(Cc1ccccc1)NCc1cccnc1` to `CC(CCc1ccccc1)NC(=O)c1ccccc1F` (stereo not shown), the “hERG current change (%, negative = inhibition) at 1uM” value rises from 7.27% to 8.27%.

Compared with `CCOC(=O)Cn1c(=O)c2c(nc(N3CCOCC3)n2C)n(C)c1=O`, `NNC(=O)c1sc2nc(N3CCOCC3)c3c(c2c1N)CCCC3` is higher in “hERG current change (%, negative = inhibition) at 1uM” value: 3.6% for the first, 13.7% for the second.

Going from `CCn1nnnc1NCc1ccc(SC)cc1` to `C=CCn1c(SCC(=O)Nc2cc(NC(C)=O)ccc2OC)nnc1-c1ccccn1`, the “hERG current change (%, negative = inhibition) at 1uM” value falls from 16.1% to 3.51%.

Going from `O=C(Nc1ccc(-c2csc(Nc3ccc(Cl)cc3)n2)cc1)c1cc([N+](=O)[O-])cc(C(F)(F)F)c1` to `COc1ccc(NS(=O)(=O)c2cc(NC(=O)c3cc(=O)c4ccccc4o3)ccc2OC)cc1`, the “hERG current change (%, negative = inhibition) at 1uM” value falls from 12.3% to -4.67%.

Going from `Cc1ccc2nc(-c3cccc(Br)c3)cc(C(=O)NC3=NCCS3)c2c1` to `C=CCOc1ccc2cccc(/C=N/NC(=O)c3cc4cc([N+](=O)[O-])ccc4s3)c2c1`, the “hERG current change (%, negative = inhibition) at 1uM” value rises from 17.6% to 19.3%.

First: CC(O)CSc1nc2c(c(=O)[nH]c(=O)n2C)n1Cc1ccccc1Cl (stereo not shown)
Second: CCCn1c(=O)c(C(=O)NCc2ccco2)c(O)c2ccccc21
The “hERG current change (%, negative = inhibition) at 1uM” value of the first is lower: 6.32% for the first, 11.4% for the second.

Going from `Cc1sc2ncnc(N3CCCCC3)c2c1C` to `CCc1c(C(=O)NNC(=S)NC2CCCCC2)csc1C`, the “hERG current change (%, negative = inhibition) at 1uM” value rises from 1.11% to 17.4%.

Compared with `Cc1cc(C)c(NC(=O)CCN2C(=O)c3ccccc3S2(=O)=O)c(C)c1`, `Cc1cc(C(=O)N/N=C/c2c(C)[nH]n(-c3ccccc3)c2=O)n[nH]1` is lower in “hERG current change (%, negative = inhibition) at 1uM” value: 19.5% for the first, 8.92% for the second.

First: COC(=O)CN(c1ccc(C)cc1)S(=O)(=O)c1c(C)[nH]c(=O)[nH]c1=O
Second: Cc1ccc(N(CCO)C(=S)Nc2ccccc2)cc1
The “hERG current change (%, negative = inhibition) at 1uM” value of the first is lower: 2.18% for the first, 17.1% for the second.

Compared with `Clc1ccc(Cl)c(OCCN2CCCC2)c1`, `N#CCCN1CCN(S(=O)(=O)c2cc(Cl)ccc2Cl)CC1` is higher in “hERG current change (%, negative = inhibition) at 1uM” value: 1.91% for the first, 4.7% for the second.

First: Cn1c2ccccc2c2cnn(CC(=O)Nc3cccc(F)c3)c(=O)c21
Second: CCSC1=N/C(=C\c2cccnc2)C(=O)N1c1ccccc1
The “hERG current change (%, negative = inhibition) at 1uM” value of the first is higher: 15.1% for the first, -4.18% for the second.

First: Cc1ccsc1/C=N/Nc1ncnc2nc[nH]c12
Second: FC(F)(F)c1cc(-c2cccs2)nc2ncnn12
The “hERG current change (%, negative = inhibition) at 1uM” value of the first is lower: -2.18% for the first, 4.2% for the second.

First: N/C(=N\OC(=O)c1ccc(Cl)cc1Cl)c1cccnc1
Second: O=C(NCC1CCCO1)C(=O)N/N=C/c1cc(Cl)ccc1O (stereo not shown)
The “hERG current change (%, negative = inhibition) at 1uM” value of the first is lower: 7.99% for the first, 13.1% for the second.

Compared with `CCn1cnc2c(Nc3cccc(Cl)c3)nc(C#N)nc21`, `COC(=O)/C(C#N)=C/c1c(Oc2cc(C)cc(C)c2)nc2c(C)cccn2c1=O` is lower in “hERG current change (%, negative = inhibition) at 1uM” value: 13.1% for the first, -0.0649% for the second.

Going from `Cc1cc(C)n(C(=O)CNC(=O)c2ccc3c(c2)OCCO3)n1` to `O=C(Nc1ccc(F)cc1)Nc1ccc2c(c1)OCO2`, the “hERG current change (%, negative = inhibition) at 1uM” value rises from 5.75% to 9.16%.

Going from `FC(F)Sc1ccc(NC(=S)NC2CCCCC2)cc1` to `Cc1ccnc(SCC(=O)NC2CCCCCC2)n1`, the “hERG current change (%, negative = inhibition) at 1uM” value rises from 6.98% to 9.68%.

Going from `CCOc1cc(/C=N/NC(=O)C(N)=O)cc(Br)c1O` to `CCOc1ccc(NC(=O)NCc2ccccn2)cc1`, the “hERG current change (%, negative = inhibition) at 1uM” value falls from 21.6% to 9.72%.

Going from `CC(C)N1CCC(N2CCN(Cc3cc4c(cc3Cl)OCO4)CC2CCO)CC1` (stereo not shown) to `O=C(COC(=O)C1CC(=O)N(Cc2ccco2)C1)c1ccc(OC(=O)c2ccco2)cc1` (stereo not shown), the “hERG current change (%, negative = inhibition) at 1uM” value falls from 6.85% to 3.45%.

Compared with `CCN(CC(=O)NCc1cccs1)C(=O)CCCOc1ccccc1`, `Nc1nc(SCC(=O)NCC2CCCO2)n[nH]1` (stereo not shown) is lower in “hERG current change (%, negative = inhibition) at 1uM” value: 0.608% for the first, -0.836% for the second.
